# PMC12820563
# This is one part of the list. The list includes weakly bound sequences.
# Molecular target: T1, MBP-FoxP3dN (UniProt Q99JB6)
# T1 sequence: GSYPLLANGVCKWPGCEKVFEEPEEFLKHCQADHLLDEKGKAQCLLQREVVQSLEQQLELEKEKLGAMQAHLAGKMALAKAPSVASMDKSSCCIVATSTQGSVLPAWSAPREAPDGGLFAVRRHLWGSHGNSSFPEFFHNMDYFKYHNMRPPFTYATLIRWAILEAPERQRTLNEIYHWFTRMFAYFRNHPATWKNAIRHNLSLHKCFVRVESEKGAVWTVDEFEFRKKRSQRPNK
# Experiment: PD-seq (MBP pull-down with sequencing)
# Details: 20 mM Tris-HCl pH 7.5, 100 mM NaCl, 1.5 mM MgCl2, 0.4 uM protein, 0.1 uM dsDNA library, 30 min, room temperature, amylose pull-down; high values mean tight binding; double strand, one strand shown
row,Sequence,binding signal (RPM ratio (pull-down/input))
1,GATGATTGTTCTCCCAGCTGATGAATTACCATTCTCGAGTAAACAAATTTTCCTAATCTTTCTGTTCAAGCGCCATCTAC,0.496
2,GATGATTGTTCTCCCAGCTGATGAATTGCGTGTCTCGAGTAAACAAATTTTCCTAATCTTTCTGTTCAAGCGCCATCTAC,2.08
3,GATGATTGTTCTCCCAGCTGATGAATTCACTTCGTCGAGTAAACAAATTTTCCTAATCTTTCTGTTCAAGCGCCATCTAC,0.349
4,GATGATTGTTCTCCCAGCTGATGAATTTCAACAGTCGAGTAAACAAATTTTCCTAATCTTTCTGTTCAAGCGCCATCTAC,0.3
5,GATGATTGTTCTCCCAGCTGATGAATTTTTGAGATCGAGTAAACAAATTTTCCTAATCTTTCTGTTCAAGCGCCATCTAC,0.234
6,GATGATTGTTCTCCCAGCTGATGAATTTTTTCGCTCGAGTAAACAAATTTTCCTAATCTTTCTGTTCAAGCGCCATCTAC,0.212
7,GATGATTGTTCTCCCAGCTGATGAATTCGATGCATCGAGTAAACAAATTTTCCTAATCTTTCTGTTCAAGCGCCATCTAC,1.84
8,GATGATTGTTCTCCCAGCTGATGAATTGGGTTTCTCGAGTAAACAAATTTTCCTAATCTTTCTGTTCAAGCGCCATCTAC,0.917
9,GATGATTGTTCTCCCAGCTGATGAATTTAGGGGATCGAGTAAACAAATTTTCCTAATCTTTCTGTTCAAGCGCCATCTAC,0.414
10,GATGATTGTTCTCCCAGCTGATGAATTTGCGTGTTCGAGTAAACAAATTTTCCTAATCTTTCTGTTCAAGCGCCATCTAC,3.79
11,GATGATTGTTCTCCCAGCTGATGAATTTCGCTGATCGAGTAAACAAATTTTCCTAATCTTTCTGTTCAAGCGCCATCTAC,0.541
12,GATGATTGTTCTCCCAGCTGATGAATTTCTCTGATCGAGTAAACAAATTTTCCTAATCTTTCTGTTCAAGCGCCATCTAC,0.198
13,GATGATTGTTCTCCCAGCTGATGAATTCGCCGAATCGAGTAAACAAATTTTCCTAATCTTTCTGTTCAAGCGCCATCTAC,0.206
14,GATGATTGTTCTCCCAGCTGATGAATTTCGCAGCTCGAGTAAACAAATTTTCCTAATCTTTCTGTTCAAGCGCCATCTAC,2.01
15,GATGATTGTTCTCCCAGCTGATGAATTACGCGTCTCGAGTAAACAAATTTTCCTAATCTTTCTGTTCAAGCGCCATCTAC,4.2
16,GATGATTGTTCTCCCAGCTGATGAATTTCCATGGTCGAGTAAACAAATTTTCCTAATCTTTCTGTTCAAGCGCCATCTAC,0.263

row,Sequence,binding signal (RPM ratio (pull-down/input))
1,GATGATTGTTCTCCCAGCTGATGAATTACATCTGTCGAGTAAACAAATTTTCCTAATCTTTCTGTTCAAGCGCCATCTAC,0.584
2,GATGATTGTTCTCCCAGCTGATGAATTGTTTGCCTCGAGTAAACAAATTTTCCTAATCTTTCTGTTCAAGCGCCATCTAC,5.67
3,GATGATTGTTCTCCCAGCTGATGAATTCGCCAATTCGAGTAAACAAATTTTCCTAATCTTTCTGTTCAAGCGCCATCTAC,0.326
4,GATGATTGTTCTCCCAGCTGATGAATTTGACGGCTCGAGTAAACAAATTTTCCTAATCTTTCTGTTCAAGCGCCATCTAC,0.334
5,GATGATTGTTCTCCCAGCTGATGAATTGCATAGCTCGAGTAAACAAATTTTCCTAATCTTTCTGTTCAAGCGCCATCTAC,0.698
6,GATGATTGTTCTCCCAGCTGATGAATTGGCGTTCTCGAGTAAACAAATTTTCCTAATCTTTCTGTTCAAGCGCCATCTAC,1.09
7,GATGATTGTTCTCCCAGCTGATGAATTGATGTGTTCGAGTAAACAAATTTTCCTAATCTTTCTGTTCAAGCGCCATCTAC,1.66
8,GATGATTGTTCTCCCAGCTGATGAATTCGCACTTTCGAGTAAACAAATTTTCCTAATCTTTCTGTTCAAGCGCCATCTAC,0.446
9,GATGATTGTTCTCCCAGCTGATGAATTGTTGAAGTCGAGTAAACAAATTTTCCTAATCTTTCTGTTCAAGCGCCATCTAC,0.394
10,GATGATTGTTCTCCCAGCTGATGAATTTTACCACTCGAGTAAACAAATTTTCCTAATCTTTCTGTTCAAGCGCCATCTAC,0.394
11,GATGATTGTTCTCCCAGCTGATGAATTCCGCCGCTCGAGTAAACAAATTTTCCTAATCTTTCTGTTCAAGCGCCATCTAC,2.27
12,GATGATTGTTCTCCCAGCTGATGAATTAAATTCCTCGAGTAAACAAATTTTCCTAATCTTTCTGTTCAAGCGCCATCTAC,0.381
13,GATGATTGTTCTCCCAGCTGATGAATTTGGCTGTTCGAGTAAACAAATTTTCCTAATCTTTCTGTTCAAGCGCCATCTAC,1.17
14,GATGATTGTTCTCCCAGCTGATGAATTATGAACGTCGAGTAAACAAATTTTCCTAATCTTTCTGTTCAAGCGCCATCTAC,0.433
15,GATGATTGTTCTCCCAGCTGATGAATTATCAGGGTCGAGTAAACAAATTTTCCTAATCTTTCTGTTCAAGCGCCATCTAC,0.24
16,GATGATTGTTCTCCCAGCTGATGAATTCGGCCTTTCGAGTAAACAAATTTTCCTAATCTTTCTGTTCAAGCGCCATCTAC,4.13
